In PubChem BioAssay AID651568 (National Center for Advancing Translational Sciences (NCATS), 2012):
Among all 1,200 compounds or so, about 55 (5%) were called active. Another 15% or so got no clear call; they are omitted. Calls come from the whole dose curve; as a rule, active = well fitted inhibition curve with a large enough effect; inconclusive = small, poorly fitted or top-dose-only effect; inactive = no such curve, though single readings can be large or run the other way. The list shows a part of the results.

Test: qHTS Assay to Find Inhibitors of Chronic Active B-Cell Receptor Signaling: Hit Validation in Renilla Reporter Assay; note: nearly all actives have a fitted effect of over 70% in size
Conditions: TMD8 IkB-Renilla luciferase reporter, NF-kB signaling; series mostly up to 57.5 µM; activity change, negative = inhibition: at the top concentration
Description: Diffuse large B-cell lymphoma (DLBCL) is the most common category of non-Hodgkin lymphoma, with ~20,000 new cases per year in the United States. DLBCL should be regarded as a collection of different neoplasms. Microarray gene expression analysis has defined two principal types of DLBCL, named for their similarity to normal B cell stages or activation states: a germinal center B-cell (GCB) type, and an activated B-cell (ABC) type. In ABC-DLBCL, a constitutive high-level activity of the NF-kappaB family of transcription factors has been observed (1) and NF-kappaB target genes are more highly expressed in ABC primary tumors than in GCB tumors. Functional studies have shown a constitutive high-level activity of the IkappaB (inhibitor of kappa-B) kinase (IKK) complex. […] Further analysis of DLBCL primary tumors for NF-kappaB target gene expression imply that although CARD11 is required for constitutive IKK activity in all ABC-DLBCL lines, mutations in CARD11 may be the root cause of IKK activation only in lines or tumors with such mutations. In other words, CARD11 mutations may explain NF-kappaB activation in only 10% of ABC-DLBCL cases. […] This process has been termed 'chronic active BCR signaling' (CABS). The goal of this screen is to find small-molecule inhibitors of the CABS pathway found in ABC-DLBCL lines using a cell-based assay that measures IkappaBalpa stability, which has already been extensively validated in the OCI-Ly3 line (PubChem AID:445; REF: 4). […] Hits from the primary screen were tested in this orthogonal secondary assay. NIH Molecular Libraries Probe Production Network [MLPCN] NIH Chemical Genomics Center [NCGC] MLPCN Grant: R03 DA031086 PI Name: Dr. R. Eric Davis
The IkB-Photinus/Renilla reporter assay differs from the primary assay in that the reporters are constitutively expressed, and based on luciferases that are different from the click beetle luciferases and each other. These differences should help to eliminate artifactual sources of activity specific to the primary assay. This assay uses the Dual-Glo substrate from Promega; extensively validated in a 96-well format, it could be converted to a smaller-well format. All lines needed for the IkB-Photinus/Renilla assay have already been prepared and extensively validated
% is set by controls: 0 for no effect and ±100 for the full control effect; potency is the fitted concentration of half-maximal effect.

SMILES	activity change, negative = inhibition	Potency
O=C(N/N=C/C(Br)=C\c1ccccc1)c1ccc2nc[nH]c2c1	inactive: 26.4%	
CCCn1nnc(NC(=S)NC(=O)c2ccc(-c3ccc(Br)cc3)o2)n1	inactive: -0.845%	
COc1cc(C2C(C#N)=C(N)Oc3cc4c(cc32)OCO4)cc(OC)c1OC (stereo not given)	inactive: -15.9%	
COc1ccccc1NS(=O)(=O)c1cccc(C(=O)N/N=C/c2cn(-c3ccccc3)nc2-c2ccccc2)c1	inactive: 12.3%	
CC(=O)c1c(C)[nH]c(C(=O)OCC(=O)c2c[nH]c3ccccc23)c1C	inactive: -20.1%	
NC(=S)N/N=C\c1ccc(-c2cccc(Cl)c2Cl)o1	inactive: -21.4%	
O=C(Cc1ccc(-n2c(=O)c3ccccc3n(Cc3ccccc3F)c2=O)cc1)NCC1CCCO1 (stereo not given)	inactive: -0.408%	
Nc1ncnc2c1ncn2C1OC(COP(=O)(O)O)C(O)C1O (stereo not given)	inactive: 8.07%	
CCCCOc1ccccc1C1CC(=O)NC2=C1C(=O)CCC2 (stereo not given)	inactive: -0.121%	
CC1=Nc2cc(C(=O)NC3CCCCC3)ccc2Sc2ccc(Cl)cc21	inactive: -18.2%	
CCc1ccc(NC(=O)CSc2nc(=O)n(CCCN3CCOCC3)c3c2CCCC3)cc1	inactive: 0.311%	
C/C(=N\NC(=O)c1c([N+](=O)[O-])c(C)nn1C)c1ccc(NC(=O)C2CCCC2)cc1	inactive: 5.23%	
Cc1noc(C)c1CSc1nc2[nH]ncc2c(=O)n1-c1ccccc1	inactive: -19.9%	
CCC1=Nc2cc(C(=O)NCc3ccco3)ccc2Sc2ccc(C)cc21	inactive: -16.4%	
S=C(NCc1ccc2[nH]c3c(c2c1)CCCC3)Nc1ccccc1	inactive: -25.8%	
COc1cc2sc(-c3ccccc3OC)c(-c3ccc(OCCN4CCOCC4)cc3)c2cc1OC	inactive: -6.95%	
COc1cc(OC)c2c(-c3cccc(-c4ccc(NC(C)=O)cc4)c3)cc(=O)oc2c1	inactive: -17.9%	
CC1CCN(C(=O)CCCOc2cc(=O)n(C)c3ccccc23)CC1	inactive: 8.3%	
Cc1ccc(-c2ccc(/C=N/NC(N)=S)o2)cc1	inactive: -2.52%	
O=[N+]([O-])c1ccccc1S(=O)(=O)Nc1cccc2cccnc12	inactive: -12.9%	
Nc1nc(Cl)nc2c1ncn2[C@@H]1O[C@H](CO)[C@@H](O)[C@H]1O	inactive: -0.157%	
Cc1cc(C)cc(C(=O)N2CC(=O)Nc3ccccc32)c1	inactive: -19.3%	
COc1ccc(NC(=S)N/N=C/c2ccc(F)cc2)cc1OC	inactive: 2.21%	
COc1ccc(-c2noc(CSc3nc(N)c(-c4ccccc4)c(=O)[nH]3)n2)cc1	inactive: -24.5%	
C/C(=N\NC(=S)NC1CCCCC1)c1ccc(C)o1	inactive: 32.3%	
Nc1ncnc2c1ncn2[C@@H]1O[C@H](CNCc2ccc(-c3cc(C(F)(F)F)ccc3Cl)o2)[C@@H](O)[C@H]1O	inactive: 2.18%	
S=c1[nH]nc(-c2ccco2)n1/N=C/C(Cl)=C/c1ccccc1		active: 26.9 µM

SMILES	activity change, negative = inhibition	Potency
CCCC(C)NC(=O)c1ccc(C2SCC(=O)N2Cc2ccco2)cc1 (stereo not given)	inactive: 4.17%	
COc1ccc(-c2c(C)c3ccc(O)cc3oc2=O)cc1	inactive: 7.08%	
Cn1c(=O)n(C)c2cc(NS(=O)(=O)c3ccc(Br)s3)ccc21	inactive: 36.7%	
O=C(CNCc1ccccc1)Nc1ccc(Oc2ccccc2)cc1	inactive: 12.7%	
CCN(CC)S(=O)(=O)c1ccc(N2CCOCC2)c(NC(=O)c2c3c(nc4ccccc24)CCC3)c1	inactive: -0.0951%	
CCOc1ccccc1C(=O)N1CCN(c2cccc(Cl)c2)CC1	inactive: -20.3%	
COc1ccc(OC)c(S(=O)(=O)Nc2ccc(-c3ccc4nnc(C)n4n3)cc2)c1	inactive: 53.8%	
COCCn1c(-c2cccc([N+](=O)[O-])c2)nc2c1c(=O)[nH]c(=O)n2Cc1ccccc1	inactive: -17.5%	
O=C(N/N=C/c1ccccc1)c1[nH]c2ccc(Br)cc2c1-c1ccccc1	inactive: 18.4%	
COCCOC(=O)c1[nH]c2c(c1C)C(=O)CC(c1ccccc1)C2 (stereo not given)	inactive: -12%	
CCC(NC(=O)CCc1c(C)c2cc3c4c(oc3cc2oc1=O)CCCC4)C(=O)O (stereo not given)	inactive: -10.2%	
CCCC1=Nc2cc(C(=O)NCCCOC(C)C)ccc2Sc2ccccc21	inactive: -14.5%	
O=c1cc(-c2cccc(F)c2)[nH]c2ccccc12	inactive: -11%	
Oc1[nH]c(N=C2N=c3ccccc3=N2)c2ccccc12	inactive: 24.7%	
COC(=O)C1=C(C)NC(C)=C(C(=O)OC)C1/C=C/c1ccccc1	inactive: 22.2%	
COc1ccc(C(=O)Nc2ccc(-n3nncc3-c3ccc(OC)c(OC)c3)cc2)cc1	inactive: -26.9%	
CCOc1ccc(N(CC(=O)Nc2ccccc2C)S(=O)(=O)c2c(C)noc2C)cc1	inactive: 0.105%	
Fc1ccc(/C=N/NC2=Nc3cccc4cccc2c34)cc1	inactive: -28.2%	
CCCCC[C@H](O)/C=C/C1=C(CCCCCCC(=O)O)C(=O)CC1	inactive: -22.6%	
Cc1ccc(C(=O)c2cc([N+](=O)[O-])ccc2N2CCCCC2)cc1	inactive: 0.979%	
COc1ccc(C(=O)/C=C2/c3ccccc3CC(C)(C)N2C)cc1	inactive: -1.53%	
CC(=O)N1CC(=O)N=C1SCC(=O)Nc1nc(C)c(-c2ccccc2)s1	inactive: 11.2%	
COC(=O)C1C(O)=C(C=Nc2cccc3ccccc23)C(=O)CC1(C)C (stereo not given)	inactive: -12.3%	
Cc1cc(C)c2ccc(/C=N/O)nc2c1O	inactive: -15.7%	
Cc1ccc2[nH]c(-c3cccc(F)c3)cc(=O)c2c1	inactive: -13%	
O=C(OCC(O)CO)c1ccccc1Nc1ccnc2cc(Cl)ccc12 (stereo not given)	inactive: -3.28%	
CCN(CC)S(=O)(=O)c1ccc(N/N=C(\C)c2ccc(OC)cc2O)nc1	inactive: -1.31%	

SMILES	activity change, negative = inhibition	Potency
CCc1ccccc1NC(=S)N=Nc1c(O)n(C)c2ccc(S(=O)(=O)N3CCOCC3)cc12	inactive: -19.7%	
Cc1ccc(C2OCC3(CO)COC(c4ccc(C)cc4)N23)cc1 (stereo not given)	inactive: -6.71%	
COc1cc2c(cc1OC)-c1cc(Nc3ccccc3)nc(=O)n1CC2	inactive: -2.28%	
CC(=O)Nc1ccc(S(=O)(=O)N2CCSc3ccccc32)cc1	inactive: 1.07%	
NC(=S)N=Nc1c(O)n(CCCl)c2ccccc12	inactive: -3.64%	
CCC(=O)NCc1cc(-c2nn(C)c(=O)c3ccccc23)ccc1OC	inactive: 4.27%	
CCCc1nc([N+](=O)[O-])c(S(=O)(=O)c2ccccc2)n1CC(C)C		active: 30.1 µM
COc1ccc(/C=N/Nc2nccnc2Cl)c(OC)c1	inactive: -1.46%	
Cc1cccc(OCCCN2C(=O)C(=O)c3cc(C)ccc32)c1	inactive: -16.7%	
O=C(Nc1nnc(SCc2ccc(F)cc2)s1)c1ccccn1	inactive: -28.1%	
Cc1ccsc1/C=N/NC(=O)c1cc(-c2ccncc2)nc2ccccc12	inactive: -18.9%	
O=C(NN=C1CCCC1)c1n[nH]c2c1CCCC2	inactive: 0.76%	
Cc1cc(NC(=O)CSc2nc3ccccc3c(=O)n2C2CCCC2)no1	inactive: 1.51%	
Cc1ccc(C2=NN(C(=O)CSc3nc(N)cc(N)n3)C(c3ccco3)C2)cc1 (stereo not given)	inactive: -19.1%	
OC[C@H]1O[C@@H](n2cnc3c(NC4CCCC4)ncnc32)[C@H](O)[C@@H]1O	inactive: -9.34%	
COc1cc2c(cc1OC)-c1cc(Nc3ccc(N(C)C)cc3)nc(=O)n1CC2	inactive: -16.6%	
Oc1ccccc1N=Nc1ccccc1O	inactive: -23.5%	
COC(=O)Nc1nc2ccc(Sc3ccccc3)cc2[nH]1	inactive: -2.08%	
CCn1ncc(C2=NOC(C(=O)NCc3ccccc3)C2)c1C (stereo not given)	inactive: -18.4%	
Cc1c(CCC(=O)N2CCC[C@H]2C(=O)O)c(=O)oc2cc3oc4c(c3cc12)CCCC4	inactive: -7.75%	
O=C(c1ccc(Br)cc1)c1cc([N+](=O)[O-])ccc1N1CCCCC1	inactive: 6.09%	
COc1cc(OC)c2c(-c3cccc(-c4ccc(N(C)C)cc4)c3)cc(=O)oc2c1	inactive: -4.65%	
COc1ccc(C(=O)N2CCc3cc(OC)c(OC)cc3C2c2ccc(OC)c(OC)c2)cc1 (stereo not given)	inactive: -0.384%	
CC(/C=C/c1ccccc1)=N\NC(=S)NC(C)C	inactive: -10.7%	
N=C1SCC(=O)N1c1ncc(Cc2ccccc2Cl)s1		active: 8.49 µM
Cc1ccc2c(c1)C(=O)C(=O)N2CC1COc2ccccc2O1 (stereo not given)	inactive: -20.1%	
COc1ccccc1N1CCN(C(=O)c2cc(=O)c3cc(C)cc(C)c3o2)CC1	inactive: 3.23%	

SMILES	activity change, negative = inhibition	Potency
O=c1cc(-c2ccccc2)[nH]c2ccc(F)cc12	inactive: 0.24%	
NC(=S)Nc1nc2ccccc2s1	inactive: 1.39%	
CC(C)CCOc1ccc(CO[C@@H]2[C@H]3OC(C)(C)O[C@H]3O[C@@H]2C(O)CO)cc1 (stereo not given in full)	inactive: -0.07%	
COc1ccc(S(=O)(=O)N2c3ccccc3OCC2C)cc1 (stereo not given)	inactive: 4.32%	
O=C1N[C@H]2CC=C[C@H]2Nc2ccccc21	inactive: 4.87%	
CCOC(=O)C1CCN(S(=O)(=O)c2c(Cl)ccc3nonc23)CC1		active: 3.01 µM
COc1ccc(CCNc2oc(-c3ccc(OC)c(OC)c3)nc2P(=O)(OC)OC)cc1OC	inactive: 3.74%	
Cc1c(CCC(=O)NCCC(=O)O)c(=O)oc2c(C)c3oc4c(c3cc12)CCCC4	inactive: -15.5%	
COc1ccc(NC(=O)C(=O)NCC2CCCN2S(=O)(=O)c2ccc(C)cc2)cc1 (stereo not given)	inactive: 6.31%	
COc1ccc(C(C)=O)cc1COC(=O)c1ccc(N)c([N+](=O)[O-])c1	inactive: 6.27%	
Cc1ccc(C(=O)Sc2cccccc2=O)cc1		active: 6.75 µM
CCOC(=O)c1c(C=O)c2sc(C)cc2n1C	inactive: -0.0596%	
CN1CCN(Cc2cc(COCc3ccccc3)c3cccnc3c2O)CC1	inactive: -23.3%	
COc1ccc(NC(=O)CSc2nc(N)c(C(=O)Nc3ccc(N(C)C)cc3)s2)cc1	inactive: -1.11%	
Cc1ccc(CCC(=O)Nc2ncc(Cc3cc(Cl)ccc3Cl)s2)o1	inactive: -15.7%	
CCOc1ncccc1C(=O)N1CCN(c2cc(Cl)ccc2C)CC1	inactive: -5.04%	
Cc1nc(NC(=O)c2cnccn2)ccc1Br	inactive: -7.88%	
CC(=O)[C@H]1CC[C@H]2[C@@H]3CCC4=CC(=O)CC[C@]4(C)[C@H]3CC[C@]12C	inactive: -12.9%	
Cc1c(CCC(=O)N[C@@H](CC(C)C)C(=O)O)c(=O)oc2cc3oc4c(c3cc12)CCCC4	inactive: 1.51%	
C=CCc1ccc(OCCOc2ccc(/C=N/n3cnnc3)cc2OCC)c(OC)c1	inactive: -11.4%	
CNc1nc2c(N)ncnc2n1[C@H]1O[C@@H](CO)[C@H](O)[C@@H]1O	inactive: 18.6%	
CCN1C(=O)C(O)(C2COC(C)(C)CC2=O)c2cc(Br)ccc21 (stereo not given)	inactive: -3.6%	
Fc1ccc(NC(=S)N/N=C/c2ccc(F)c(F)c2)cc1	inactive: 2.41%	
COc1ccc(C2=Nn3c(nnc3C3CCCCC3)SC2)cc1OC	inactive: 5.07%	
